Measurements as given in the supplement of paper PMC9174493.
Some of the results follow. Single values of this set are uncertain. Values with irradiation are relative to irradiated vehicle.

The compounds below were run on A549-Dual (assay: ISRE reporter (Lucia luciferase) activity, viability-corrected, relative to vehicle (fold change vs vehicle); higher = more activation of STING-IRF / NF-kB immune response reporter). Settings: 10 µM; irradiation: none.

Row | SMILES | ISRE reporter
1 | NC(=O)CC(N)C(=O)O.O (stereo not drawn) [L(+)-Asparagine monohydrate] | 0.753
2 | CN(C)CC(c1ccc(O)cc1)C1(O)CCCCC1.O=C(O)CCC(=O)O (centres undefined) [Desvenlafaxine Succinate] | 1.11
3 | COc1cc2ccc(=O)oc2cc1O [Scopoletin] | 0.171
4 | COC(=O)NC(C(=O)N1CCCC1c1ncc(-c2ccc3c(c2)OC(c2ccccc2)n2c-3cc3cc(-c4cnc(C5CCCN5C(=O)C(NC(=O)OC)C(C)C)[nH]4)ccc32)[nH]1)C(C)C (centres undefined) [Elbasvir] | 2.25
